Test results taken from PubChem BioAssay AID894 (National Center for Advancing Translational Sciences (NCATS), 2007).
In all, about 150,000 compounds went through this assay and about 6,500 (4.3%) were called active. The inconclusive results got no clear call from the source; some entries with a clear call stand among them for comparison. Calls follow the shape of the dose curve; as a rule, active = well fitted inhibition curve with a large enough effect (not every such curve was filed as active); inconclusive = small, poorly fitted or top-dose-only effect, or another doubt; inactive = no such curve, though single readings can be large or run the other way. No potency is given beside an inconclusive call; the fits are too rough.
% is scaled to controls: 0 for no effect and ±100 for the full control effect; potency is read from the fitted curve at half-maximal effect; tags tell the direction and shape of the fitted curve.

What follows are molecules tested against 15-hydroxyprostaglandin dehydrogenase [NAD(+)] (Homo sapiens) (UniProt P15428) (assay: qHTS Assay for Inhibitors of HPGD (15-Hydroxyprostaglandin Dehydrogenase)). Details: purified HPGD, NADH fluorescence kinetic, PGE2 substrate; activity change, negative = inhibition: stronger effect = lower value.
Sequence of UniProt P15428 (P15428 whole entry, looked up): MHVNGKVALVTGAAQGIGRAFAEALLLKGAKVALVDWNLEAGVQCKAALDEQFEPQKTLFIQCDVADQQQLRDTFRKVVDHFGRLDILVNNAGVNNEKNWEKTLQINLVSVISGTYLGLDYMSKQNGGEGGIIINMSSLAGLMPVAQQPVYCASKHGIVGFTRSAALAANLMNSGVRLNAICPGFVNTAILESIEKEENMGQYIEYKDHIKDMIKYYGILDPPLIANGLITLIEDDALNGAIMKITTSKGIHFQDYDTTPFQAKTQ
Outline: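 20 nM HPGD preincubated 15 min at room temperature with compound in 50 mM Tris-HCl pH 8, 0.01% Tween 20. Started with 1 mM NAD+ and 30 uM prostaglandin E2; NADH fluorescence (360/450 nm) read 5 times over 30-s intervals, last minus first.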
In the case of `CCn1c(O)c(C=NC2CCCC2)sc1=S`, the Potency is reported as inconclusive [inhibitor, single point].
With `CN1CCN(c2ccccc2NC(=O)c2ccc(-c3ccc(Cl)cc3Cl)o2)CC1` the Potency was inconclusive [inhibitor, partial curve].
For `CC1=C(C#N)C(c2cccnc2)C2=C(CC(C)(C)CC2=O)N1` (centres undefined), the Potency was inconclusive [inhibitor, partial curve].
With `CCOC(=O)C(=O)Nc1ccccc1C(=O)Nc1ccc(OC)cc1` the Potency was inconclusive [inhibitor, partial curve].
With `C[C@H]1Cc2c(COc3ccccc3)nc3c(c2CO1)CN(C(=O)NCCc1c[nH]c2ccccc12)CC3` the activity change, negative = inhibition was inactive: 1.35%.
In the case of `O=c1[nH]ccc2c(S(=O)(=O)N3CCCNCC3)cccc12`, the Potency is reported as inconclusive [inhibitor, partial curve].
For `N#Cc1c(/N=C/c2ccccc2)oc(-c2ccccc2)c1-c1ccccc1`, the Potency was inconclusive [inhibitor, single point].
With `O=C(O)CCN1C(=O)/C(=C/c2ccc(-c3nc4ccccc4s3)o2)SC1=S` the Potency was active: 12.6 µM.
For `c1csc(-c2nnsc2-c2nc3ccccc3[nH]2)c1`, the Potency was inconclusive [inhibitor, partial curve].
In the case of `Cc1nnn(-c2nonc2N)c1C(=O)N/N=C/c1cccc2ccccc12`, the Potency is reported as inconclusive [inhibitor, single point].
`O=C(c1cc(-c2cccs2)on1)N1CCc2ccccc2C1` was tested, and the Potency was active: 12.6 µM.
`CSc1nc(-c2ccco2)nn1S(=O)(=O)c1ccc(C)cc1` was tested, and the Potency was inconclusive [inhibitor, partial curve].
`CCS(=O)(=O)Nc1ccc(C2=NN(C(=O)c3ccco3)C(c3ccc(C)cc3)C2)cc1` (centres undefined) was tested, and the Potency was inconclusive [inhibitor, partial curve].
For `COc1ccc(-c2cn3cccnc3n2)cc1Br`, the Potency was inconclusive [inhibitor, partial curve].
With `O=C(Nc1cc(Cl)ccc1N1CCCCC1)c1cccs1` the activity change, negative = inhibition was inactive: -13.2%.
In the case of `CCOC(=O)C(C)C(C)=O` (centres undefined), the activity change, negative = inhibition is reported as inactive: -0.352%.
For `Cc1ccc2nc(-c3ccc(NC(=O)COC(=O)c4cncc(Br)c4)cc3)sc2c1`, the Potency was inconclusive [inhibitor, partial curve, poor fit].
In the case of `Cc1cc(O)c(C=O)c2c1C(=O)Oc1c(C)c(O)c3c(c1O2)C(O)OC3=O` (centres undefined), the Potency is reported as active: 10 µM.
In the case of `CC(=O)N1CCN(c2ccc(NC(=O)C(C)Oc3ccc(Cl)cc3Cl)cc2)CC1` (centres undefined), the Potency is reported as active: 20 µM.
